Out of some 420,000 compounds screened, about 64,000 (15%) were called active. The shares of active, inactive and inconclusive entries below differ from those in the screen. Calls come from the whole dose curve; as a rule, active = well fitted inhibition curve with a large enough effect; inconclusive = small, poorly fitted or top-dose-only effect; inactive = flat fitted curve, though single readings scatter. No potency is given beside an inconclusive call; the fits are too rough.
assay: qHTS for Inhibitors of human tyrosyl-DNA phosphodiesterase 1 (TDP1): qHTS in cells in absence of CPT; settings: DT40 Tdp1-/- hTDP1 cells, no CPT, ATP luminescence, 48 h; activity change, negative = growth inhibition: at 46.2 µM (top of the series); note: nearly all actives have a fitted effect of over 55% in size
Procedure, shortened: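 DT40 Tdp1-/-;hTDP1 cells, no CPT (DMSO vehicle only), 400 cells/well; compounds pin-transferred; ≥48 hr, 37 °C; CellTiter-Glo 30 min RT dark, luminescence read.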
% is set by controls: 0 for no effect and ±100 for the full control effect; potency is the fitted concentration of half-maximal effect; tags give direction and shape of the fitted curve.

Structure (SMILES)	Potency	activity change, negative = growth inhibition
CCOC(=O)Cc1csc(N/N=C\c2cccc(Br)c2)n1	inconclusive [inhibitor, single point]	–
COc1ccc2oc(=O)c(-c3csc(Nc4cccc(O)c4)n3)cc2c1	active: 16.4 µM	–
COc1cc(C2C(C#N)=C(N)N(Nc3ccccc3)C3=C2C(=O)CC(C)(C)C3)ccc1OCc1cccc(F)c1 (stereo unspecified)	inconclusive [inhibitor, single point]	–
Cc1ccc(C2c3c(oc4cc(C)c(C)cc4c3=O)C(=O)N2CCCN2CCOCC2)cc1 (stereo unspecified)	inconclusive [inhibitor, single point]	–
COc1ccc(C(CNC(=O)CN2C(=O)NC(C)(c3ccc4ccccc4c3)C2=O)N2CCCC2)cc1 (stereo unspecified)	inconclusive [inhibitor, single point]	–
COc1ccc2c(c1)CC(C(=O)NCCN1CCN(c3cccc(Cl)c3)CC1)CO2 (stereo unspecified)	active: 14.6 µM	–
CCCc1ccc(OCC(=O)Nc2scc(-c3cccs3)c2C(=O)OC)cc1	inconclusive [inhibitor, single point]	–
O=C(Oc1ccc2c(-c3ccccc3)cc(=O)oc2c1)C1CCCCC1	inconclusive [inhibitor, single point]	–
Cc1ncsc1CCC(=O)N1CCCC(C(=O)c2cccc(Cl)c2)C1 (stereo unspecified)	inconclusive [inhibitor, single point]	–
CCCN1C(=O)c2ccc(C(=O)Nc3nccs3)cc2C1=O	–	inactive: -12.3%
COC(=O)c1ccc2nc(-c3ccccc3)c(Cc3cccc(F)c3)n2c1	inconclusive [inhibitor, single point]	–
CCCCCCCCCCCCCC(=O)O	inconclusive [inhibitor, single point]	–
CC(C)CCN1CCN(Cc2cccc3cccnc23)CC1CCO (stereo unspecified)	inconclusive [inhibitor, single point]	–
CCN(Cc1ccccc1)S(=O)(=O)c1cc2c3c(c1)CCN3C(=O)CC2	–	inconclusive: -37.8% [inhibitor]
CCOC(=O)CC1=CC(C)(CC(=O)OCC)C(C#N)(C#N)C(N)=C1C#N (stereo unspecified)	–	inactive: -20.5%
O=C(N[C@H](CO)Cc1ccccc1)c1ccco1	–	inactive: -6.78%
COc1ccc(CN(C)CC(=O)Nc2ccc(Cl)cc2C(F)(F)F)c(OC)c1	active: 16.4 µM	–
COC(=O)Nc1nc(-c2ccccc2)c(C(=O)c2ccc(Cl)cc2)s1	active: 0.651 µM	–
NC(=O)NC1NC(=O)NC1=O (stereo unspecified)	inactive	–
O=C(NCc1ccccc1)C(c1ccccc1)N(C(=O)c1csnn1)c1ccc(F)cc1 (stereo unspecified)	inconclusive [inhibitor, partial curve]	–
Fc1ccccc1C(c1nnnn1Cc1ccc2c(c1)OCO2)N1CCN(Cc2ccccc2)CC1 (stereo unspecified)	inconclusive [inhibitor, single point]	–
NC(=O)c1ccsc1NC(=O)c1coc2ccccc2c1=O	active: 29.1 µM	–
COC(=O)C[C@H]1C[C@H]2c3cc(NC(=O)Cc4ccncc4)ccc3O[C@H]2[C@@H](CO)O1	inconclusive [inhibitor, partial curve, poor fit]	–
OC1c2cc(Cl)ccc2-c2c(Cl)cc(Cl)cc21 (stereo unspecified)	inconclusive [inhibitor, single point]	–

Structure (SMILES)	Potency	activity change, negative = growth inhibition
CCSCc1nc(N)nc(NCCc2ccccc2)n1	–	inactive: -4.87%
CC1(C)CC(Nc2ccc(C(F)(F)F)cc2[N+](=O)[O-])CC(C)(C)N1	inconclusive [inhibitor, single point]	–
Cc1ccc(CNC(=O)c2sc3nc4n(c(=O)c3c2C)CCCC4)cc1	inconclusive [inhibitor, single point]	–
O=c1c2c3c(sc2n2cnnc2n1Cc1ccccc1)CN(Cc1ccccc1)CC3	active: 14.6 µM	–
CN(C)CCN(Cc1cc2cc3c(cc2nc1Cl)OCO3)C(=O)c1ccco1	–	inconclusive: -30.7% [inhibitor]
CC(=O)NC1=NN(C(C)=O)C(C)(c2ccccn2)S1 (stereo unspecified)	–	inconclusive: -30.6% [inhibitor]
CNc1nc(-c2ccc3c(c2)CCN3C(=O)CC(C)(C)C)c(C)s1	inconclusive [inhibitor, partial curve]	–
O=C(NCc1ccc(OC(F)(F)F)cc1)C1CC(c2ccccc2C(F)(F)F)=NO1 (stereo unspecified)	inconclusive [inhibitor, single point]	–
CC(=O)N(C)c1ccc(NC(=O)Cc2cccs2)cc1	–	inactive: 3.32%
O=C(NC1CCCC1)c1ccc2c(c1)S(=O)(=O)c1ccccc1C2=O	inconclusive [inhibitor, single point]	–
COc1ccc(S(=O)(=O)N2CCOCC2)cc1NC(=O)COc1ccc(C)cc1	inconclusive [inhibitor, partial curve]	–
CN1CCN(C(=S)Nc2ccccc2Cl)CC1	inconclusive [inhibitor, partial curve]	–
O=c1[nH]c(=O)c2cc([N+](=O)[O-])cc([N+](=O)[O-])c2[nH]1	inconclusive [inhibitor, single point]	–
COc1ccc(CNS(=O)(=O)c2ccc(S(=O)(=O)NC3CC3)cc2)cc1	inconclusive [inhibitor, full curve]	–
CC1(C)CC(=O)C=C(c2ccccc2-c2ccc(S(C)(=O)=O)cc2)C1=O	inconclusive [inhibitor, partial curve]	–
O=C(OCC1CCCO1)c1ccc2c(c1)N(Cc1c(F)cccc1Cl)C(=O)c1ccccc1S2(=O)=O (stereo unspecified)	–	inactive: -5.08%
CCC12CCCN3CCc4c(n(c5ccccc45)C(O)(C(=O)OC)C1)C32 (stereo unspecified)	inconclusive [inhibitor, single point]	–
CCC(C(=O)NCc1ccccc1)n1c(-c2cccs2)nc2ccccc21 (stereo unspecified)	inconclusive [inhibitor, partial curve]	–
CCCCn1c(C2CC(=O)N(c3ccc(OCC)cc3)C2)nc2ccccc21 (stereo unspecified)	inconclusive [inhibitor, single point]	–
Cc1ccc(NC(=O)c2sc(Cl)nc2-c2ccccc2)cc1C	active: 18.4 µM	–
CCOC(=O)N1CCN(Cc2cc(=O)oc3ccc4ccccc4c23)CC1	inconclusive [inhibitor, single point]	–
C=CCN(c1ccccc1)S(=O)(=O)c1cccc(C(=O)O)c1	–	inactive: -6.15%
COc1ccc(C)cc1N(CC(=O)NC1CCCC1)C(=O)Cn1nnc(-c2ccc(C)o2)n1	–	inactive: -23.2%
COC(=O)c1ccc(OCc2cc(=O)n3ccsc3n2)cc1	inconclusive [inhibitor, single point]	–

Structure (SMILES)	Potency	activity change, negative = growth inhibition
O=C(Cn1nc([N+](=O)[O-])nc1Br)NC(c1ccccc1)c1ccccc1	active: 16.4 µM	–
COc1ccc(NC(=S)NCCSc2ccc(Cl)cc2)c(OC)c1	inconclusive [inhibitor, single point]	–
CCOCCn1c(=NC(=O)c2ccc3c(c2)OCCO3)sc2cc(OCC)ccc21	active: 14.6 µM	–
CC(=O)Nc1ccc(S(=O)(=O)N2CCN(c3ccc([N+](=O)[O-])cc3)CC2)cc1	active: 20.6 µM	–
Cc1cc(C)c(NC(=O)c2ccc3nc(C(C)C)oc3c2)c(C)c1	inconclusive [inhibitor, single point]	–
CCOCCCNC(=O)c1cn(C)c2ccc(S(=O)(=O)N3CCCC3)cc2c1=O	–	inactive: 13.3%
O=C(Cn1cc(SCc2ccc(F)cc2)c2ccccc21)N1CCCC1	inconclusive [inhibitor, single point]	–
OCCNc1nnc(-c2ccccc2)c(-c2ccccc2)n1	inconclusive [inhibitor, partial curve, poor fit]	–
COc1ccc(Cl)cc1NC(=O)c1[nH]nc(OC)c1[N+](=O)[O-]	–	inactive: 0.124%
CCOC(=O)c1c(S(=O)(=O)NCC(=O)Nc2cccc(C)c2)c(C)n(C)c1C	–	inactive: 16.5%
COc1ccc(C2=CC(c3ccco3)n3ncnc3N2)cc1 (stereo unspecified)	inconclusive [inhibitor, single point]	–
COc1cccc(N2CCN(C(=O)C3CCN(C(=O)Nc4ccccc4)CC3)CC2)c1	–	inactive: -2.85%
O=C1CCC(C(=O)O)N1 (stereo unspecified)	–	inactive: 4.41%
CCN(CC)S(=O)(=O)c1ccc2c(c1)c(=O)c(C(=O)N1CCN(c3cc(C)ccc3C)CC1)cn2C	inconclusive [inhibitor, single point]	–
Cc1nc(NC(=O)c2ccccc2)sc1-c1csc(N)n1	inconclusive [inhibitor, partial curve]	–
CC(=O)Nc1ccc(/C=C/C(=O)c2ccc(-n3nncc3-c3ccccc3)cc2)cc1	active: 10 µM	–
CC(C)C12NC(=O)NC(=O)N1CCS2 (stereo unspecified)	inconclusive [inhibitor, single point]	–
COc1ccc(S(=O)(=O)N2CCC(c3nnnn3-c3ccccc3)CC2)cc1OC	inconclusive [inhibitor, single point]	–
COc1ccc(/C=C/C(=O)N2CCN(C)CC2)cc1OC	–	inactive: 2.75%
O=C(Nc1ccccc1C(F)(F)F)C1CCN(c2nnc(-n3cccc3)s2)CC1	inconclusive [inhibitor, single point]	–
Cc1ccc(C(=O)Nc2cccc(C(=O)NCc3ccco3)c2)cc1	inconclusive [inhibitor, partial curve]	–
Cc1cccc(S(=O)(=O)c2cn(Cc3ccc(F)cc3)c3cc(N4CCOCC4)c(F)cc3c2=O)c1	inconclusive [inhibitor, single point]	–
Cc1cc(SCC(=O)c2cccs2)nc2ccccc12	inconclusive [inhibitor, single point]	–

Reference: PubChem BioAssay AID686978 (National Center for Advancing Translational Sciences (NCATS), 2013)
